Laboratory results reported in the supplement of paper PMC7436455.
Some of the results follow. No stated cut-off is given here; in the data, only hits are listed; in these data all have Qbind below 0.67. Repeats are few or missing, and single values can be far off.

Experiments:
Assay in all cases: Qbind: 19F CPMG 200 ms/0 ms integral ratio with target relative to without target; higher = weaker binding (less relaxation enhancement by target)
[1] = system: TPP-sensing riboswitch tenA
[2] = system: TPP-sensing riboswitch thiM (80)
[3] = system: Adenine-sensing riboswitch
HDV ribozyme (70 nt) = conditions: 19F shift (ppm): -120.618
[4] = system: Hammerhead ribozyme (54 nt); conditions: 19F shift (ppm): -120.618
PtkA (30 kDA) = conditions: 19F shift (ppm): -120.466
[5] = system: Tel26 G-quadruplex (26 nt); conditions: 19F shift (ppm): -120.548
Terminator stem (39 nt) = conditions: 19F shift (ppm): -120.531
[6] = system: Translation initiation region (60 nt); conditions: 19F shift (ppm): -120.618
ZMP-sensing riboswitch = conditions: 19F shift (ppm): -120.531
[7] = system: c-di-GMP-sensing riboswitch (98 nt); conditions: 19F shift (ppm): -120.531
cGAMP-sensing riboswitch = conditions: 19F shift (ppm): -120.531
[8] = system: cKit G-quadruplex (24 nt); conditions: 19F shift (ppm): -120.548
[9] = system: cMyc G-quadruplex (22 nt); conditions: 19F shift (ppm): -120.548
tRNA (77nt) = conditions: 19F shift (ppm): -120.618
[10] = system: wtTel26 G-quadruplex (26 nt); conditions: 19F shift (ppm): -120.548

Measured: Qbind: 19F CPMG 200 ms/0 ms integral ratio

Cn1cc(C(N)=O)c(C(F)F)n1
active: [1]; 19F shift (ppm): -114.5188 = 0.0289 | [2]; 19F shift (ppm): -114.5188 = -0.0226

CNC(C)c1ccc(F)cc1.Cl (centres undefined)
active: [3]; 19F shift (ppm): -112.4396 = 0.615

N#Cc1ccc(N2CCNCC2)c(F)c1
active: [3]; 19F shift (ppm): -120.618 = -0.0494 | HDV ribozyme (70 nt) 0.449 | [4] 0.261 | PtkA (30 kDA) 0.178 | [1]; 19F shift (ppm): -120.5772 = -0.283 | [2]; 19F shift (ppm): -120.5772 = 0.0822 | [5] 0.0195 | Terminator stem (39 nt) 0.605 | [6] 0.133 | ZMP-sensing riboswitch -0.018 | [7] 0.052 | cGAMP-sensing riboswitch 0.104 | [8] -0.1 | [9] 0.0959 | tRNA (77nt) 0.351 | [10] 0.233
